Experimental data reported in the BET-seq Pho4 binding data (Le et al. 2018).
The other results are listed elsewhere or left out. These are noisy estimates, calculated here from bound and input reads.

Molecular target: T1, Pho4 (S. cerevisiae) (UniProt P07270)
T1 sequence: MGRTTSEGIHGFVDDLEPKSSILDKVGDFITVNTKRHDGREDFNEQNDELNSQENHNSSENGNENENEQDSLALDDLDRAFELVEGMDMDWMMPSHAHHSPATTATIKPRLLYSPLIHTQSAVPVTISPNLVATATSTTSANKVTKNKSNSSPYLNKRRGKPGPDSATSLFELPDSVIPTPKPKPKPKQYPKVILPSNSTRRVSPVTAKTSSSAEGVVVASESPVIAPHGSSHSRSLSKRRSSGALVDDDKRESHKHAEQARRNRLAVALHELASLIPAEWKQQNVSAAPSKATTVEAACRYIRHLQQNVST
Assay: relative binding free energy (BET-seq); higher = weaker binding
Conditions: reference: library average

Relative binding free energy, 0.42 kcal/mol:
TTCATCACGTGAGAGG

Relative binding free energy, -0.03 kcal/mol:
TGTCACACGTGTATTT
ACTTGCACGTGGCTGT
GCTATCACGTGGGGGG
TTAGGCACGTGTAGTT
ATTGGCACGTGGAAGG

Relative binding free energy, 0.09 kcal/mol:
GTTCACACGTGTGAGT
TTTTACACGTGGCTTC
AAAGTCACGTGTGGCT
ATATCCACGTGGTTTT
GACGTCACGTGGTGGG
GTGCTCACGTGGTGCG
GTTGTCACGTGGCTCT
GGGTGCACGTGGTGGA
TTTTCCACGTGTGTGG

Relative binding free energy, 0.32 kcal/mol:
GAGTTCACGTGAAATG
TAGTTCACGTGGAGAG

Relative binding free energy, 0.12 kcal/mol:
AAGTTCACGTGGGCGG
TTAGTCACGTGGATGT

Relative binding free energy, -0.12 kcal/mol:
GTATGCACGTGCATGG
GTAGACACGTGGGACG
GAGGGCACGTGCTGGT

Relative binding free energy, -0.02 kcal/mol:
TGTAGCACGTGTCAAG
AATAGCACGTGTGTTC
TATGTCACGTGCGTGG
GGCTGCACGTGGGGAA

Relative binding free energy, 0.03 kcal/mol:
TAGCTCACGTGTTATT
TGTAACACGTGTGAGT
GTTTGCACGTGGGGAT
TTTAACACGTGTGTCA

Relative binding free energy, 0.14 kcal/mol:
ATGCTCACGTGTTTGT
TGTGTCACGTGTGCGG
GGCTGCACGTGGTTTC
GGATGCACGTGTAAAT

Relative binding free energy, 0.24 kcal/mol:
GAGCTCACGTGGTTTA
TATAGCACGTGAATAT
TCTTGCACGTGATGGC
GTTGGCACGTGAAGAA

Relative binding free energy, 0.19 kcal/mol:
TACTTCACGTGGTAGT
TGTTACACGTGATCAG
GTGATCACGTGGTAAT
GAAGTCACGTGTGTGC

Relative binding free energy, 0.39 kcal/mol:
GAGTTCACGTGTGCTA
GTGAGCACGTGAATGT

Relative binding free energy, 0.25 kcal/mol:
GAACTCACGTGTGTGG

Relative binding free energy, -0.09 kcal/mol:
GGGCCCACGTGTGTAG

Relative binding free energy, 0.01 kcal/mol:
TTTTGCACGTGGTTTG
CTAGCCACGTGTGCGG
TTTTGCACGTGGGTTT
GTACACACGTGTAGGT
TTTTGCACGTGCAGCG
TGGATCACGTGTTTGC
TTTTCCACGTGTCGTT
AAGAGCACGTGTGTAG
AGAAACACGTGGGGGA

Relative binding free energy, -0.06 kcal/mol:
TGTGCCACGTGTTATG
AGATACACGTGGAGGG

Relative binding free energy, 0.18 kcal/mol:
GTTTCCACGTGCAGTT
ATGTACACGTGAGGAG
TTGGTCACGTGTACCA
CAGGGCACGTGAGATG
GCTTTCACGTGGGGGC

Relative binding free energy, 0.15 kcal/mol:
CTGGTCACGTGTGTAT
TTGTTCACGTGGCGTG
AACGTCACGTGTGAGG
CGATTCACGTGGGTTA
GGGTCCACGTGTGTCT
CTGTTCACGTGGTCTG
GTGCGCACGTGATTAG
GTCTACACGTGCGTTT

Relative binding free energy, 0.35 kcal/mol:
GTCTACACGTGATGGG
CGGGACACGTGAGCGG
AATCTCACGTGTTTAG

Relative binding free energy, -0.13 kcal/mol:
CGGGGCACGTGGTGTG
TTTAGCACGTGGGTGA
GCGTCCACGTGGTGTG

Relative binding free energy, 0.33 kcal/mol:
GTCTGCACGTGAGATG

Relative binding free energy, -0.27 kcal/mol:
TAGGCCACGTGGTGCG

Relative binding free energy, 0.05 kcal/mol:
TTTCTCACGTGGGTCA
CGTTACACGTGGATGT

Relative binding free energy, 0.04 kcal/mol:
TGTGTCACGTGGGAAC
GTCGGCACGTGGATTT
AAAGTCACGTGTTAAG
GTGAGCACGTGGATGC

Relative binding free energy, -0.16 kcal/mol:
TGGGGCACGTGGGTGG

Relative binding free energy, 0.37 kcal/mol:
GGCTTCACGTGTTTAA
ATTATCACGTGAAGTG

Relative binding free energy, 0.16 kcal/mol:
CTTTCCACGTGTAGGG
TTTATCACGTGGTTGG
GTTATCACGTGTGCTG
GACTGCACGTGTGGCG
CTATTCACGTGGTTTT

Relative binding free energy, 0.1 kcal/mol:
TTTAGCACGTGACGGA

Relative binding free energy, 0.28 kcal/mol:
TATTACACGTGAGTAT
TGGTTCACGTGGATCT
TTTTCCACGTGAATGG
TACTTCACGTGGTAAG

Relative binding free energy, 0.34 kcal/mol:
CTGTTCACGTGTTGAG
TTCTTCACGTGTATTT

Relative binding free energy, 0.29 kcal/mol:
GGATTCACGTGGCGTA
TGGATCACGTGTAACG
TAATTCACGTGGCCGT
GTTTTCACGTGGCCGG
GAAATCACGTGGTGAT

Relative binding free energy, 0.27 kcal/mol:
CTTTTCACGTGTTTCT
TGGATCACGTGATTGA
GTTATCACGTGTGGCT
GTTTTCACGTGTCTCG

Relative binding free energy, 0.26 kcal/mol:
TATAACACGTGAGGTA
AGATTCACGTGGGTTC
GCATTCACGTGGCTTT
TGGTTCACGTGCTTCG

Relative binding free energy, -0.08 kcal/mol:
AGGCACACGTGGGCGT
TGGGTCACGTGGGATA
TTGTGCACGTGCGTTG
GTGAGCACGTGGGAAT
GAGGGCACGTGCGATT
AAGCACACGTGGGGGT

Relative binding free energy, -0.17 kcal/mol:
TAGTGCACGTGTTCGA
TAGTGCACGTGCATGT
GGGCGCACGTGCGGCT
CTGGGCACGTGGCTTG
TCGGGCACGTGGTATG
AGTCGCACGTGCGGGA
CTACGCACGTGGGTGG

Relative binding free energy, -0.3 kcal/mol:
AATACCACGTGGGGTG

Relative binding free energy, -0.11 kcal/mol:
AAGAGCACGTGCGGTT
GGACGCACGTGTGGGA
TGAAGCACGTGTGCTT
TTTTGCACGTGTGCAA
ATGAGCACGTGCGGGG
TGTGACACGTGGTTCA

Relative binding free energy, -0.18 kcal/mol:
GTGAGCACGTGGGGCA

Relative binding free energy, 0.07 kcal/mol:
AATGTCACGTGTGTCA

Relative binding free energy, 0.41 kcal/mol:
GACGTCACGTGTTTTT

Relative binding free energy, -0.21 kcal/mol:
ATTCGCACGTGGGCGG
ATTGACACGTGGTGAT

Relative binding free energy, -0.07 kcal/mol:
GACAACACGTGGGGTT
TGTAGCACGTGTGTAT

Relative binding free energy, 0.22 kcal/mol:
AGTTTCACGTGGAGGT

Relative binding free energy, -0.05 kcal/mol:
CTGTACACGTGGTGGT
CGTGGCACGTGGACTG
AGCTGCACGTGGGATT
TGTAACACGTGTGCTG
CTAGGCACGTGGATGA
ACGTGCACGTGCAGGG
GTCTGCACGTGGAGGG
AGTTGCACGTGGTGGT
AGGGGCACGTGGAATG
AGGGTCACGTGGCGTG
CTGGGCACGTGGAGAT

Relative binding free energy, 0.11 kcal/mol:
ACTGTCACGTGTGTGT
GTTGTCACGTGGCGAT
AATTGCACGTGTTTGC
TTTATCACGTGGTTAT
CGTACCACGTGGTTTT

Relative binding free energy, 0.38 kcal/mol:
AAAATCACGTGAGGTT
GTCTTCACGTGCTGGT

Relative binding free energy, 0 kcal/mol:
TATGTCACGTGCGGGA
ATTAACACGTGTCGTA
ATAGGCACGTGATTAG
TGGGCCACGTGTGAAT
CTGTACACGTGGTTGG
ATTAACACGTGCGGGA
GAGTACACGTGGTTAG

Relative binding free energy, 0.08 kcal/mol:
AAGGCCACGTGATGGT
CGGGTCACGTGGCACG
GGTGGCACGTGATTAC

Relative binding free energy, 0.31 kcal/mol:
TTTTTCACGTGTTAGT
TAGTACACGTGATAGG

Relative binding free energy, 0.3 kcal/mol:
GCTTTCACGTGAGGTG
TTTTTCACGTGTATTT
TTGAGCACGTGAAGTT
TACCTCACGTGTAGGT
TGGTACACGTGAGATA
GCTGGCACGTGTAGAT
GGATTCACGTGCGAGT

Relative binding free energy, -0.04 kcal/mol:
TAGCACACGTGGTGGG
GATTGCACGTGGTAGC
GTTTGCACGTGGTGCG
AGTGGCACGTGAGTCT
AATTGCACGTGGCGTT
TACGGCACGTGGTGAA

Relative binding free energy, -0.14 kcal/mol:
CAGTACACGTGGGGGG
TAGAGCACGTGGAGTG

Relative binding free energy, 0.2 kcal/mol:
TGTTGCACGTGAATCG
GGTGTCACGTGTCGCG
CCGGGCACGTGAGGAT
GTTGTCACGTGATGTA

Relative binding free energy, 0.02 kcal/mol:
TGAGGCACGTGGTAAA
TTTGGCACGTGTGGCC
TGGTCCACGTGCTGTG
CGCGACACGTGGTGTA
CGTTGCACGTGGTGAC
GTGGACACGTGGAGGA
TATTACACGTGGGCGC
GAGGACACGTGTTAGG

Relative binding free energy, -0.22 kcal/mol:
GGTAACACGTGGGGCT

Relative binding free energy, -0.2 kcal/mol:
GTAAGCACGTGCTGGG
CGTAACACGTGGGTTT
TTGGGCACGTGGAGTA

Relative binding free energy, -0.01 kcal/mol:
CGGGGCACGTGTAGGA
AGTTGCACGTGTTCGA
AATTGCACGTGTGCTG
ATTGGCACGTGGAATG

Relative binding free energy, -0.15 kcal/mol:
CGGGGCACGTGTGTGG
AAGCGCACGTGGTGGG

Relative binding free energy, 0.17 kcal/mol:
GGTTACACGTGGCGTC
GTACTCACGTGGGTGG
CGTGTCACGTGATGGA
GGGGTCACGTGGATAA

Relative binding free energy, 0.06 kcal/mol:
CTGTGCACGTGATTGT
ATTGTCACGTGGTACA
GTAATCACGTGGGGTA
TCTTCCACGTGTTGTG
ACTTACACGTGTTGTA
GTTACCACGTGTGGTT
ACAGTCACGTGGGATG

Relative binding free energy, -0.26 kcal/mol:
TTTAGCACGTGCTTTA
CGTAGCACGTGGTTTG
AGAGGCACGTGGGGGA

Relative binding free energy, 0.23 kcal/mol:
TGGCTCACGTGGGATC
ATCATCACGTGATTGG

Relative binding free energy, -0.19 kcal/mol:
CGGCGCACGTGGGTCG
TGGGGCACGTGCTATT

Relative binding free energy, -0.1 kcal/mol:
GGCGGCACGTGGTTTA

Relative binding free energy, 0.21 kcal/mol:
GGAGTCACGTGTGTGC
TGCGTCACGTGATGGG
TGCTTCACGTGTTGGA
GTTCTCACGTGGGGCA
